Measured values reported in PubChem BioAssay AID1508623 (National Center for Advancing Translational Sciences (NCATS), 2021).
Hit rate of the full screen: of about 48,000 compounds, about 450 (0.94%) were called active. Another 19% or so got no clear call; they are omitted. Calls come from the whole dose curve; as a rule, active = well fitted inhibition curve with a large enough effect; inconclusive = small, poorly fitted or top-dose-only effect; inactive = no such curve, though single readings can be large or run the other way. This is one part of the list.

assay: Primary qHTS for Identification of Small Molecule Inhibitors of Huntingtin Promoter Activity; details: HEK293 HTT promoter firefly luciferase reporter (activity 0% = vehicle and -100% = no light), 24 h; series mostly up to 57.5 µM; activity change, negative = inhibition: at the top concentration; note: nearly all actives have a fitted effect of over 50% in size
Method in brief: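 HEK293 cells carrying firefly luciferase reporters were seeded at 2,500 per well in Opti-MEM and cultured for 24 h. They were then treated with compounds at up to 57.5 uM final for 24 h at 37 degrees C before Dual-Glo luminescence readout.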
Potency is the fitted concentration of half-maximal effect.

Row | Compound | activity change, negative = inhibition | Potency
1 | CCc1ccc(CNC(=O)c2ccc(NC(=O)N3CCSc4ncccc43)cc2)cc1 | inactive: -26.7% | –
2 | CCc1nc2nc(C)cc(Nc3cc(Cl)ccc3OC)n2n1 | inactive: 1.36% | –
3 | CCOc1ccc(CNC(=O)CCc2c(C)nn(-c3ccc(N4CCOCC4)nn3)c2C)cc1 | inactive: -14.3% | –
4 | CC(C)NC(=O)Cn1c(=O)nc(-c2ccccc2)c2ccccc21 | inactive: -0.664% | –
5 | CCOc1ccc(CCNC(=O)c2ccc(C)c(-n3cnc4cccnc43)c2)cc1 | inactive: -10.3% | –
6 | Cc1cccc(N(C)C(=O)CS(=O)(=O)c2cccc3nsnc23)c1 | inactive: -5.69% | –
7 | Cc1ccc(C(C)C)c(OCc2ccc(C(=O)Nc3ccc(S(N)(=O)=O)cc3C)o2)c1 | inactive: -33.9% | –
8 | COc1cccc(CNC(=O)c2ccc3c(Cl)c4c(nc3c2)CCCC4)c1 | inactive: -3.76% | –
9 | CCOc1ccc(Nc2cc(C)c(C#N)c3nc4ccccc4n23)cc1 | inactive: -1.24% | –
10 | CCCCN(CCCC)C(C(N)=O)c1ccc(OC)cc1 (configuration not stated) | inactive: 5.22% | –
11 | O=C(OCc1ccco1)c1ccc2c(c1)N(Cc1ccc([N+](=O)[O-])cc1)C(=O)c1ccccc1S2 | inactive: -30% | –
12 | Cc1nc(-n2nc(C)c(CCC(C)C)c2C)sc1C(=O)Nc1cccc(Cl)c1C | inactive: 1.5% | –
13 | O=C(CN1C(=O)COc2ccc(S(=O)(=O)N3CCCC3)cc21)NCCc1ccc(Cl)cc1 | inactive: -25.5% | –
14 | CCOc1ccc2nc(N3CCN(C(=O)C(C)C)CC3)sc2c1 | inactive: -11.5% | –
15 | COc1cc(OC)c(C(=O)CCCN2CCCC2)c(OC)c1 | inactive | –
16 | COc1ccc2oc(=O)cc(CN3CCN(C(=O)c4ccccc4Br)CC3)c2c1 | inactive: -19.1% | –
17 | Cn1nnnc1SCCCNCc1ccc(-c2cccc(Cl)c2)o1 | inactive: -3.1% | –
18 | COc1ccc(NC(=O)CSc2nnc(-c3nonc3NC(C)=O)n2C)cc1Cl | inactive: -15.4% | –
19 | Cc1ccc(-n2ccnc(NCCc3ccccc3)c2=O)cc1C | inactive: 12.1% | –
20 | CCOC(=O)c1c(C)[nH]c(C)c1S(=O)(=O)N1CCCC(C(=O)Nc2ccc(OC)c(OC)c2)C1 (configuration not stated) | inactive: -0.786% | –
21 | O=c1cc2nc(-c3ccccc3F)nc(SCc3ccc(Br)cc3)n2[nH]1 | inactive: -10.1% | –
22 | Cc1ccccc1-n1c2nc(=O)[nH]c(=O)c-2cc2c(Cl)cccc21 | inactive: 4.89% | –
23 | COC(=O)c1cc(C)nc2c1c(=O)nc(SCc1cccc(C(F)(F)F)c1)n2C1CC1 | inactive: -15% | –
24 | CCN(CC)CCCNC(=O)C(C)n1nc(C)n2c(cc3occc32)c1=O (configuration not stated) | inactive: -15.9% | –
25 | Cc1c(Cl)cccc1NC(=O)CCn1cnnn1 | inactive: -6.57% | –

Row | Compound | activity change, negative = inhibition | Potency
26 | O=C(C1CCC(CNS(=O)(=O)c2cccs2)CC1)N1CCN(c2ccc(Cl)cc2)CC1 (configuration not stated) | – | active: 3.98 µM
27 | COC(=O)c1ccccc1NC(=O)CN(c1ccc(Cl)cc1)S(=O)(=O)c1ccc(OC)cc1 | inactive: -15.4% | –
28 | COc1ccc(CCNC(=O)Cn2c(=O)nc(-c3ccccc3F)c3cc(Cl)ccc32)cc1OC | inactive: 19.8% | –
29 | Cc1ccc2[nH]c(CSc3nnc(C)s3)cc(=O)c2c1 | inactive: 1.18% | –
30 | CCOc1ccccc1NC(=O)C1CCN(S(=O)(=O)c2cccc3nonc23)CC1 | inactive: 8.92% | –
31 | O=C(Nc1cc(-c2ccc(F)c(F)c2)no1)c1ccccc1F | inactive: 43.6% | –
32 | N#CC(c1ccc(Cl)cc1)c1c(Cl)cc(-n2ncc(=O)[nH]c2=O)cc1Cl (configuration not stated) | inactive: -2.27% | –
33 | CC1=C(C(=O)Nc2ccc(F)cc2)C(c2ccc(N(C)C)cc2)NC(=O)N1 (configuration not stated) | inactive: -11.2% | –
34 | CCC1CN(C(=O)C2CCN(S(=O)(=O)c3c(C)noc3/C=C/c3ccc(C)cc3)CC2)c2cc(C)ccc2O1 (configuration not stated) | inactive: -24.5% | –
35 | COCCNC(=O)CCn1c(=O)[nH]c2cc(OC)c(OC)cc2c1=O | inactive: 1.43% | –
36 | CC1CCCN(c2ncnc3c2nnn3C)C1 (configuration not stated) | inactive: 6.26% | –
37 | O=C(Nc1ccc(C(F)(F)F)cc1)C1(c2cccs2)CCOCC1 | inactive: -12.2% | –
38 | CCC1CN(C(=O)N2CCC(C(=O)NCc3ccccc3F)CC2)c2ccccc2O1 (configuration not stated) | inactive: -19.6% | –
39 | CCOc1ccc(NC(=O)c2cc(S(=O)(=O)N3CCC(C)CC3)cn2C)cc1 | inactive: -4.42% | –
40 | COc1ccc(CNC(=O)Cc2ccc(NC(=O)N3CCCCc4ccccc43)cc2)cc1 | inactive: -23.3% | –
41 | Cc1ccc(NC(=O)c2c(C)oc3ncnc(N4CCCCC4)c23)c(C)c1 | inactive: -26% | –
42 | CC(Oc1ccccc1F)C(=O)NCC1(N2CCOCC2)CCCCC1 (configuration not stated) | inactive: -22.9% | –
43 | Cc1cc(C)cc(NC(=O)c2cc(S(=O)(=O)N3CCCCC3)c[nH]2)c1 | inactive: -1.53% | –
44 | CC(C)(C)C(=O)OCOP(=O)(COCCn1cnc2c(N)ncnc21)OCOC(=O)C(C)(C)C | inactive | –
45 | CCc1ccc(NC(=O)c2sc3nc(C)cc(C)c3c2NC(=O)c2ccccc2)cc1 | inactive: 20.7% | –
46 | Cc1ccc(-c2nn3c(C)nnc3c3ccccc23)cc1S(=O)(=O)NC(C)(C)CO | inactive: 33.7% | –
47 | Cc1ccccc1NC(=O)C1CCN(S(=O)(=O)c2cccc3nonc23)CC1 | inactive: 0.563% | –
48 | CN(C)S(=O)(=O)c1ccc2c(c1)N(CC(=O)N1CCC(C(N)=O)CC1)CCS2 | inactive: -5.07% | –
49 | COc1ccc(/C=C/C(=O)Nc2cccc(F)c2)cc1 | inactive: 5.96% | –
50 | Cc1ccc(C)c(NC(=O)Cn2cc(S(=O)(=O)c3ccc(F)cc3)c(=O)c3cc(F)ccc32)c1 | inactive: -15.1% | –

Row | Compound | activity change, negative = inhibition | Potency
51 | Cc1cccc(C)c1NC(=O)Cn1c(=O)n(CCC(=O)NCc2ccc3c(c2)OCO3)c(=O)c2sccc21 | inactive: -12.8% | –
52 | COc1ccc(-c2cc(C(F)(F)F)n3nc(C(=O)Nc4ccc(Cl)cc4C(F)(F)F)cc3n2)cc1OC | inactive: -11.4% | –
53 | COc1ccc(C(=O)N2CCN(CCc3ccccn3)CC2)cc1 | inactive: -16% | –
54 | Cc1oc(-c2ccccc2)nc1Cn1c(=O)cc(-c2ccccc2)c2c(C)nn(C)c21 | inactive: -9.7% | –
55 | Cc1ccc(NC(=O)c2cnc(SCC(=O)N3CCCc4ccccc43)n(C)c2=O)cc1C | inactive: -14.8% | –
56 | CC(C)CN(CC(C)C)c1nnc(NC(=O)Nc2cccc(C(F)(F)F)c2)s1 | inactive: -21.9% | –
57 | COc1ccc(OCC(=O)Nc2ccc3c(c2)N(C)C(=O)c2ccccc2S3)cc1 | inactive: -26.3% | –
58 | COc1ccc(-c2cc(C(=O)Nc3c(C(=O)c4ccc(C)c(F)c4)oc4ccccc34)no2)cc1 | inactive: 20% | –
59 | Cc1ccc2nc(Cl)c3cc(C(=O)N4CCCC(C)C4)sc3c2c1 (configuration not stated) | inactive: -21.3% | –
60 | CCn1c(=O)c2cc(C(=O)NCCc3ccc(OC)c(OC)c3)sc2c2ccccc21 | inactive: -12.3% | –
61 | COC(=O)Cn1c(SCCOc2ccccc2Cl)nc2ccccc21 | inactive: 1.37% | –
62 | O=C(CCS(=O)(=O)c1nc(-c2ccc3c(c2)OCO3)cc(C(F)(F)F)n1)Nc1ccccc1C(F)(F)F | inactive: -19.2% | –
63 | CCOC(=O)c1cc(-c2ccc(C)cc2)n(CC(=O)Nc2cc(C)ccc2C)c1C | inactive: -6.9% | –
64 | COc1ccc(-c2cc(C(F)(F)F)n3nc(C(=O)Nc4cccc(Cl)c4Cl)cc3n2)cc1OC | inactive: -20.3% | –
65 | CC1=C(C(=O)Nc2ccc(C)cc2C)C(c2cc(Br)ccc2F)n2ncc(C(=O)Nc3ccc(C)cc3)c2N1 (configuration not stated) | inactive: -25.8% | –
66 | CCc1ccccc1NC(=O)c1cc(S(=O)(=O)N2CCC(C)CC2)cn1C | inactive: -20.2% | –
67 | CCOc1ccc(NC(=O)Cn2cc(C(=O)c3ccccc3)c(=O)c3cc(OC)ccc32)cc1 | inactive: -12% | –
68 | COC(=O)c1cc(NC(=O)CCc2c(C)nc3nc(C)nn3c2C)cc(C(=O)OC)c1 | inactive: -4.75% | –
69 | CCCCn1c(SCc2ccccc2C#N)nc2c(sc3ccccc32)c1=O | inactive: -19.2% | –
70 | CC1=C(C(=O)Nc2ccccc2C)C(c2ccc[nH]2)n2ncnc2N1 (configuration not stated) | inactive: 7.15% | –
71 | Cc1ccc(-n2ncc3c(=O)n(Cc4cccc(C(F)(F)F)c4)cnc32)cc1C | inactive: -15.1% | –
72 | CCOC(=O)Cn1c(=O)cc(C)c2c(C)nn(-c3cccc(F)c3)c21 | inactive: -4.08% | –
73 | Cc1ccc2c(c1)-c1onc(C(=O)N(C)c3ccc(F)cc3)c1CO2 | inactive: 23.4% | –
74 | Cc1cccc(CC(=O)Nc2cccc(-c3cn4cccnc4n3)c2)c1 | inactive: 16.2% | –
75 | O=C(NCc1ccc2c(c1)CCN2C(=O)c1ccncc1)c1cccc(F)c1 | inactive: -4.08% | –

Row | Compound | activity change, negative = inhibition | Potency
76 | CCOC(=O)c1[nH]c(C)c(C(=O)NCc2ccccc2Cl)c1C | inactive: -17.6% | –
77 | O=C(CCc1nnc2n(Cc3ccccc3Cl)c(=O)c3ccccc3n12)Nc1ccccc1 | inactive: -3.68% | –
78 | CCOc1ccc(C2c3[nH]c4ccccc4c3CCN2C(=O)CCC2CCCC2)cc1 (configuration not stated) | inactive: -25.6% | –
79 | CCOC(=O)C1CCCN(S(=O)(=O)c2cc(Br)cc3c2N(C(=O)CC)CC3)C1 (configuration not stated) | inactive: 9.44% | –
80 | Cc1ccc(COC(=O)c2ccc(-c3nnn(Cc4ccc(C)cc4)n3)cc2)cc1 | inactive: 0.715% | –
81 | Cc1ccn2c(=O)c(NC(=O)c3cccc([N+](=O)[O-])c3C)c(C)nc2c1 | inactive: -26.9% | –
82 | CCN(CCCNC(=O)CN1N=C(c2ccc(C)cc2)CCC1=O)c1ccccc1 | inactive: -28% | –
83 | O=c1cc(-c2ccccc2)nc(SCc2nc(-c3cccc(C(F)(F)F)c3)no2)[nH]1 | inactive: -1.43% | –
84 | CC(=O)C(Sc1nc(-c2ccccc2Cl)nc2c1c(=O)n(C)c(=O)n2C)C(=O)N(C)C (configuration not stated) | inactive: -9.98% | –
85 | CN1CCC(=C2c3ccccc3CC(=O)c3sccc32)CC1 | inactive | –
86 | Cc1ccc(CNC(=O)CCCn2nc(C)n3c(cc4sccc43)c2=O)cc1 | inactive: -0.103% | –
87 | COc1cccc(C(=O)c2cn(CC(=O)Nc3ccc4c(c3)OCCO4)c3nc(C)ccc3c2=O)c1 | inactive: -14.3% | –
88 | Cc1ccc(NC(=O)NCc2c(-n3cccc3)sc3c2CCCC3)c(Cl)c1 | inactive: -21.1% | –
89 | CCC(=O)N1CCc2cc(S(=O)(=O)NC(CC(C)C)C(=O)NCc3cccc(OC)c3)ccc21 (configuration not stated) | inactive: -15.9% | –
90 | CCOC(=O)c1cccc(NC(=O)NC2COc3ccccc3C2)c1 (configuration not stated) | inactive: -17.7% | –
91 | CCN(Cc1ccccc1)S(=O)(=O)c1ccc(F)c(C(=O)Nc2ccc(C(C)C)cc2)c1 | inactive: -24.8% | –
92 | Cc1cccc(C)c1NC(=O)c1cc2sccc2n1Cc1ccc(F)cc1 | inactive: -10.8% | –
93 | COc1cc(NC(=O)C2CCN(S(=O)(=O)c3c(C)noc3/C=C/c3c(C)cc(C)cc3C)CC2)cc(OC)c1 | inactive: -26.4% | –
94 | COc1ccc(OC)c(CNc2ncc(-c3ccc(Cl)cc3)n2C)c1 | inactive: 4.59% | –
95 | Cc1ccc(CNC(=O)c2cn(C)c3ccc(S(=O)(=O)N4CCC(C)CC4)cc3c2=O)cc1 | inactive: -2.48% | –
96 | COc1ccccc1N1CCN(CC(O)COc2cccc3ccccc23)CC1 (configuration not stated) | inactive | –
97 | Cc1ccccc1CN1C(=O)c2ccccc2Sc2ccc(C(=O)NCCCN3CCOCC3)cc21 | inactive: -12.5% | –
